# The supplement of paper PMC3334620
# The full ranking holds about 33,000 sequences; the median of “E-score (-0.5 to 0.5)” is about -0.036, and the highest 2% start at about 0.37. The list shows a part of the results.
# Target: T1, Yer064c (UniProt P40041)
# T1 sequence: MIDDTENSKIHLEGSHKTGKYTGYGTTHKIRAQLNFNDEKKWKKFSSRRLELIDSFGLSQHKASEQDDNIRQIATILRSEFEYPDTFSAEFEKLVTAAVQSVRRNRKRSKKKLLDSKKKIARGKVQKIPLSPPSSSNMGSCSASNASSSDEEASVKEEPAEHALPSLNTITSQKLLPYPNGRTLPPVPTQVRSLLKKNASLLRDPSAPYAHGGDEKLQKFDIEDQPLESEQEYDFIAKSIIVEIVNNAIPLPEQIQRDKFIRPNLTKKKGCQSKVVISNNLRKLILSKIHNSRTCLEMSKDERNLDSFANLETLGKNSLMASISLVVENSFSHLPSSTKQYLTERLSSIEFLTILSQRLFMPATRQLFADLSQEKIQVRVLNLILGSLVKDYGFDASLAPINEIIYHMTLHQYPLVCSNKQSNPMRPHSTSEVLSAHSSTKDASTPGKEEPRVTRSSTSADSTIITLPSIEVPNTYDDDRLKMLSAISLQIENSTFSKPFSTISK
# Test: PBM E-score (8-mer binding enrichment) (E-score (-0.5 to 0.5)); higher = stronger / more preferred TF binding; most listed sequences are background and not binding sites
# Details: protein concentration: 200 nM; construct: GST-full length
# Experimental: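 Universal 'all 10-mer' protein binding microarrays (Agilent AMADID 015681) probed with GST-tagged S. cerevisiae TFs (full-length or DBD) made by in vitro transcription/translation (PURExpress), about 100-200 nM. Bound TF was detected with fluorescent anti-GST. Each ungapped 8-mer (which stands for itself and its reverse complement) is scored by the PBM enrichment score (E-score), a modified Wilcoxon-Mann-Whitney statistic from -0.5 to +0.5, computed with the Universal PBM Analysis Suite. Scale: above 0.35 generally sequence-specific binding.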
row,Sequence,PBM E-score
1,CTAGACGC,-0.172
2,CGTTACCA,-0.116
3,ATTACTTA,0.129
4,CTTATTTC,0.0896
5,CCGTACCA,-0.0747
6,GGCAGGAC,-0.196
7,GAACGACA,-0.118
8,GCCTCCCA,-0.292
9,ACGTTGCT,-0.105
10,CACTGTAC,-0.114
11,CATAATGC,-0.095
12,AGTTTTTG,0.103
13,GATTTACA,0.114
14,GCACCGAC,-0.0732
15,GAAGCTGA,-0.00743
16,CACTACGA,0.0996
17,GGATTAGA,-0.122
18,AGATAACG,0.0367
19,TCGATTCA,0.256
20,CCTCATCA,-0.114
21,ATCTCTCG,-0.044
22,GTTACAGA,-0.0621
23,ATACGAAT,-0.0243
24,CCCACGCC,-0.138
25,ACCGTTAC,0.0779

row,Sequence,PBM E-score
1,CACTCTAA,0.149
2,GGGAATTA,-0.0956
3,GACGCCTC,-0.216
4,CATTATAG,0.174
5,GCAGTTAC,-0.0144
6,GTAAAGAA,-0.0534
7,CGAATGAC,0.253
8,AAGAAGGC,-0.313
9,CGTAGCTC,-0.149
10,CATTTAAG,0.0396
11,CACCCATG,0.0859
12,AAAGGCAA,0.0611
13,ATTCGCAA,-0.0124
14,CACTACTA,0.0937
15,GGGGTCTA,-0.0717
16,GTATCCCA,-0.174
17,AGGTGCAC,-0.143
18,AAGTTTAT,0.0447
19,GCATAGCA,-0.144
20,GACCTTGC,-0.127
21,ACAGAAAA,0.237
22,AGATCATA,0.15
23,CCGCAAGA,-0.189
24,AAACTCCT,-0.0312
25,AATATAGA,0.0851

row,Sequence,PBM E-score
1,AGTGCGTG,0.145
2,GCATCGCC,-0.301
3,ATGAGACA,0.341
4,GACCGAAC,-0.059
5,GGCAAAGA,-0.0316
6,AATGGTTC,0.232
7,GAGTGGCC,-0.216
8,ACACGTCG,-0.167
9,CAAAGCTG,-0.0364
10,AACCGAGT,0.17
11,AAGGTTAT,-0.0372
12,AACTGTTA,0.0274
13,CCTGCGTA,0.00633
14,CAATAAGC,-0.0857
15,AGTAGTAC,0.136
16,GGCATACC,-0.234
17,ATATGAGC,0.0528
18,TCATGGCA,0.153
19,TAACCCAA,0.132
20,CGTCGAGC,-0.122
21,CCCAATTC,-0.103
22,AGTAAGGA,0.0173
23,ACGCGACC,-0.263
24,CAATCGCG,-0.0813
25,GGCAGGGA,-0.0423

row,Sequence,PBM E-score
1,CATTTGGC,-0.0348
2,GTGACTTA,0.443
3,ACGCCTGA,0.0377
4,AAGGTAAG,-0.0105
5,TATGCGCA,-0.147
6,ATGACTTC,0.469
7,GACGGCAA,-0.0972
8,ACTTTCCT,-0.019
9,CGCAAGCC,-0.177
10,AAAACTGG,-0.243
11,ACCTCGCC,-0.203
12,CGAAGCAC,-0.0626
13,TATACATA,0.127
14,ACAGCACT,-0.0496
15,CGGGACAC,-0.146
16,CAATGTTA,-0.0325
17,GCTTTCTA,-0.00665
18,AACTAATT,0.128
19,CGTCGTTA,-0.0429
20,CACACAAG,0.144
21,GGCGACCA,-0.416
22,GTAGAACA,-0.261
23,GGCTGTTA,-0.163
24,AATAGCCT,-0.0586
25,ACAGCATG,-0.047

row,Sequence,PBM E-score
1,AGGATATA,-0.00012
2,GCTTTAGA,-0.0435
3,CCAGTGTA,-0.0872
4,CACACATC,0.192
5,TTCAAAAA,0.144
6,TAAGCTTA,0.157
7,CCATCTGA,0.15
8,CAAGCAAA,-0.206
9,TGGAGACA,0.172
10,GTCGGACA,-0.0758
11,TCAGTTAA,0.0951
12,ACTGCATG,0.126
13,AACGCCGC,-0.324
14,CCCTATAG,-0.0183
15,GTAGTAAC,0.0921
16,GATCCAAC,-0.148
17,CGTTTACC,0.0722
18,CTGAGCAG,0.0225
19,CTTACAAC,-0.0451
20,CGGGTGAC,0.199
21,GCGACGCC,-0.314
22,AACTTCCT,0.0478
23,CAGTAGAA,-0.0503
24,CTATTCTA,0.132
25,AGAATATG,0.0395

row,Sequence,PBM E-score
1,GCCGTCAC,-0.196
2,CACAAGGA,0.25
3,AATTGCGG,0.0246
4,GTTCGAGA,-0.0119
5,ATAAAGCC,-0.207
6,ACTGGGGG,-0.212
7,CGATAGGC,-0.172
8,CTTCATCA,0.0982
9,GCTGACGA,0.129
10,CCCGGAGA,-0.138
11,CGTGAAAA,-0.0566
12,GGAGGAAA,-0.0699
13,GTGCTGCA,-0.214
14,GCGTGCGA,-0.0939
15,ATCAGGGC,-0.0445
16,GATAACAC,-0.145
17,CAAGAATG,0.018
18,ACATACAC,0.0835
19,AGGTATCC,-0.229
20,ATGGTGAC,0.22
21,AGGGACTA,0.222
22,AATTCCCG,-0.0557
23,CAGAACTC,0.0471
24,AATGATGG,-0.0994
25,AGACAAAA,0.00377

row,Sequence,PBM E-score
1,ATGCTGGA,-0.0219
2,GCTCCTCC,-0.221
3,CACCGCAA,-0.0119
4,GCAGCGGA,-0.0986
5,AAGTGACA,0.0209
6,GCACTCGC,-0.158
7,CCACCTCA,-0.12
8,ACTTAGCA,0.0868
9,AATCTCAA,0.139
10,AACACGAC,0.139
11,GGTGTTAC,0.219
12,GAGCTTCC,-0.0369
13,CATCCATA,0.00119
14,GGGTGTGA,0.137
15,CCTCCGCA,-0.358
16,GCATTGAC,0.157
17,ACAATCGG,-0.0601
18,CACAGGAA,0.0467
19,TACCCATA,0.229
20,GCTAGCAC,-0.143
21,AGATAGCC,-0.0862
22,CCCGACGC,-0.059
